Results are given in words; binding and its absence hold for the method and conditions named. For part of these data: In cells and extracts the contact can be indirect. Some binding calls cover weakened binding; strength is not graded here. For part of these data: Tags and fused reporters may be left off the sequences shown.
Columns and labels:
[1] = molecular target: T1, full-length human TREM2 tagged with a 3xFLAG at the C-terminus (TREM2-3xFLAG) (human) (UniProt Q9NZC2); assay: co-IP; HEK293 cells transfected with bicistronic plasmids TREM2-3xFLAG + Myc-BRI2 variants; TREM2-3xFLAG precipitated with M2; blot with anti-Myc and anti-human BRI2; three independent transfections
T1 sequence: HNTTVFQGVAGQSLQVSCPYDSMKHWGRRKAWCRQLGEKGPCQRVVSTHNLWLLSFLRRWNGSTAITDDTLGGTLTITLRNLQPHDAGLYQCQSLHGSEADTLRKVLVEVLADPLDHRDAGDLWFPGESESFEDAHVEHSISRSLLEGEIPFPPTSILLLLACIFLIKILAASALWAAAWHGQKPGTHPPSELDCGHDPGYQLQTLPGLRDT

[2] = molecular target: recombinant BRI2-BRICHOS (human) (UniProt Q9Y287); assay: non-reducing SDS-PAGE and Western blot; eluates of the cell-free pull-down separated under reducing and non-reducing conditions; blot with M2; both purified
[3] = molecular target: recombinant BRI2-ECD (human) (UniProt Q9Y287); assay: as above

| Substance | binding [1] | further results |
| --- | --- | --- |
| Myc-BRI2_(1-80) (from UniProt Q9Y287 1-80) (domain or fragment) | no binding | – |
| Myc-BRI2_(1-131) (from UniProt Q9Y287 1-131) (domain or fragment) | binds | – |
| Myc-BRI2δ_(80-131), which lacks amino acids 80-131 (from UniProt Q9Y287 1-266) | binds | – |
| full-length human BRI2 tagged with a Myc epitope at the N-terminus (Myc-BRI2) (from UniProt Q9Y287 1-266) | binds | – |
| recombinant BRI2-BRICHOS (from UniProt Q9Y287 137-231) (domain or fragment) | – | binding [2]: binds |
| recombinant BRI2-ECD (from UniProt Q9Y287 76-266) (domain or fragment) | – | binding [3]: binds |

From article PMC10933458
